According to PubChem BioAssay AID686979 (National Center for Advancing Translational Sciences (NCATS), 2013):
In all, about 420,000 compounds went through this assay and about 50,000 (12%) were called active. The inconclusive results got no clear call from the source; some entries with a clear call stand among them for comparison. The call rests on the fitted dose curve; in most records, active means well fitted inhibition curve with a large enough effect; inconclusive means small, poorly fitted or top-dose-only effect; inactive means flat fitted curve, though single readings scatter. Potencies of inconclusive entries are left out as doubtful fits.

Test: qHTS for Inhibitors of human tyrosyl-DNA phosphodiesterase 1 (TDP1): qHTS in cells in presence of CPT; further: nearly all actives have a fitted effect of over 55% in size
Details: chicken DT40 Tdp1-/-;hTDP1 cells + 20 nM CPT, ATP luminescence, 48 h; activity change, negative = growth inhibition: at 46.2 µM (top of the series) unless noted
How it was run: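 Chicken DT40 Tdp1-/- cells complemented with human TDP1, 400 cells/well, exposed to compounds plus 20 nM camptothecin for at least 48 h at 37 C; viability read as ATP content by CellTiter-Glo luminescence.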
On the % scale 0 is the no-effect control and ±100 the full control effect; potency means the concentration at half of the fitted maximal effect; tags describe the fitted curve by direction and shape.

SMILES	Potency	activity change, negative = growth inhibition
COc1ccc(CCNC(=O)c2ccc3c(c2)sc2nc(-c4ccccc4)cn23)cc1OC	active: 5.17 µM	–
COc1ccc(Cl)cc1N1C(=O)CC(Sc2ccccc2N)C1=O (stereo not drawn)	–	inactive: 2.72%
O=C1C=C(NCc2ccc(Cl)c(Cl)c2)C2(CCCCC2)O1	inconclusive [inhibitor, single point]	–
CC(=O)c1ccc(OCC(O)Cn2nnc3ccccc32)cc1 (stereo not drawn)	inconclusive [inhibitor, partial curve, poor fit]	–
COc1ccc(N2CC(NS(=O)(=O)c3ccc4ccccc4c3)CC2=O)cc1 (stereo not drawn)	inconclusive [inhibitor, single point]	–
CCCCc1ccc(-n2c(Cc3cccs3)n[nH]c2=S)cc1	inconclusive [inhibitor, single point]	–
Cc1cccc(S(=O)(=O)Nc2nc3ccccc3nc2NCc2ccco2)c1	inconclusive [inhibitor, single point]	–
Cc1ccc(S(=O)(=O)N(C)c2ccc(C(=O)N(CC(C)C)C3CCS(=O)(=O)C3)cc2)cc1 (stereo not drawn)	inconclusive [inhibitor, single point]	–
CCOC(=O)Cc1csc(/N=C/c2c(O)n(-c3ccccc3C(F)(F)F)c(=O)c3ccccc23)n1	active: 20.6 µM	–
Cc1ccc(CNC(=O)Cn2c(SCC(=O)Nc3ccc(F)cc3)nc3ccccc32)cc1	inconclusive [inhibitor, single point]	–
CC1(C)CC(=O)C(C=Nc2cc(C(=O)c3ccccc3)ccc2N)=C(O)C1	–	inactive: -3.46%
Cc1ccc2c(c1)C1CN(C)CCC1N2S(=O)(=O)c1ccccc1F (stereo not drawn)	–	inactive: 4.3%
CCCCn1c(CN2CCN(c3cccc(Cl)c3)CC2)nc2c1c(=O)n(C)c(=O)n2C	active: 7.31 µM	–
Cc1ccc(N(Cc2cc3ccc(C)cc3[nH]c2=O)S(C)(=O)=O)c(C)c1	inconclusive [inhibitor, single point]	–
CC(C)Oc1ccc(C(=O)/C=C2/C(=O)Nc3ccccc32)cc1	inconclusive [inhibitor, single point]	–
O=C(Nc1nnc(SCc2ccc(Cl)cc2)s1)c1cnccn1	inconclusive [inhibitor, single point]	–
COc1ccc(C(=O)N2CCN(C3CCCCC3)CC2)cc1OC	–	inactive: -5.34%
Cc1cc(OCC(=O)NCCc2nc3ccccc3[nH]2)cc(C)c1Cl	active: 11.6 µM	–
O=C(NC1CCCC1)c1cn(C2CCCN(Cc3ccc4c(c3)OCCO4)C2)nn1 (stereo not drawn)	inconclusive [inhibitor, partial curve, poor fit]	–
N#Cc1c(N2CCCC2)nc(N)c2c(N)nc(N3CCCC3)cc12	inconclusive [inhibitor, single point]	–
COc1ccc(OC)c(S(=O)(=O)Nc2cccc3ccccc23)c1	–	inactive: -13.7%
CCC(Sc1nc(C)cc(=O)[nH]1)C(=O)Nc1nc(-c2ccccc2)cs1 (stereo not drawn)	inconclusive [inhibitor, full curve]	–
COc1ccc(/C=C2\Oc3cc(OCC(N)=O)ccc3C2=O)cc1OC	inconclusive [inhibitor, single point]	–

SMILES	Potency	activity change, negative = growth inhibition
Cc1ccc(NC(=O)c2ccco2)c(NC(=O)c2ccccc2)c1	–	inactive: -3.06%
CCOc1ccc(Nc2nc(Cl)nc(N3CCN(c4ccc(OC)cc4)CC3)n2)cc1	active: 18.4 µM	–
O=S(=O)(c1ccccc1)c1nc(-c2ccccc2Cl)oc1N1CCCCCC1	inconclusive [inhibitor, single point]	–
CCn1ncc(Br)c1C(=O)Nc1ccc(OC(F)(F)F)cc1	–	inactive: -29.5%
COc1ccc(C)cc1C(=O)CCC(=O)Nc1ccccc1N1CCOCC1	inconclusive [inhibitor, partial curve, poor fit]	–
Cc1cc(C)c(S(=O)(=O)NCCS(=O)(=O)N2CCN(c3ccccc3)CC2)c(C)c1	active: 23.1 µM	–
Cc1ccc(S(=O)(=O)C(CNC(=O)c2c(F)cccc2F)c2ccco2)cc1 (stereo not drawn)	inconclusive [inhibitor, single point]	–
Cc1ccc(CNC(=O)C(C)n2c(=O)cc(C(F)(F)F)c3c(C)nn(C)c32)cc1 (stereo not drawn)	active: 25.9 µM	–
O=C(OCC(=O)N1CCCCC1)c1ccc2ccccc2n1	–	inactive: 5.17%
COc1ccc(Cl)cc1N(CC(=O)NCCSc1ccccn1)S(=O)(=O)c1ccccc1	inconclusive [inhibitor, partial curve, poor fit]	–
Cc1[nH]c2ccccc2c1/C=N/NC(=O)c1cccc(S(=O)(=O)Nc2cccc(C(F)(F)F)c2)c1	inconclusive [inhibitor, single point]	–
CCOC(=O)[C@]12CCC=C1N(Cc1ccc3c(c1)OCO3)C(=O)[C@H](CC(=O)NCC1CCCCC1)C2	inconclusive [inhibitor, single point]	–
COC(=O)c1ccc(C(=O)OC)c(NC(=O)CN2CCN(c3ccc(OC)cc3)CC2)c1	inconclusive [inhibitor, single point]	–
CCn1c(SCC(=O)Nc2oc(-c3ccccc3)c(-c3ccccc3)c2C#N)nnc1-c1cc(OC)cc(OC)c1	–	inactive: -28%
COC(=O)c1ccc(/C=C(\C#N)c2ccccn2)cc1	inconclusive [inhibitor, single point]	–
CC(C)OCCCNC(=O)Nc1cccc2ccccc12	–	inactive: -22.9%
CC1(c2ccc(Cl)cc2)NC(=O)N(CC(=O)Nc2cccnc2Cl)C1=O (stereo not drawn)	inconclusive [inhibitor, full curve, poor fit]	–
O=c1cc(-c2ccccc2)nc(Sc2ccc([N+](=O)[O-])cc2[N+](=O)[O-])[nH]1	inconclusive [inhibitor, single point]	–
CS(=O)(=O)N(CCc1ccccc1)CC(=O)NCc1cccnc1	–	inactive: 7.59%
CC(=O)c1ccc([C@H]2C[C@@]34CN(C(=O)OC(C)(C)C)S(=O)(=O)[C@H]3C[C@H]2O4)cc1	inconclusive [inhibitor, single point]	–
CCCCOC(=O)c1ccc(NC(=O)C(=O)NCCN(CC)CC)cc1	–	inconclusive: -36% [inhibitor]
Cc1cc(C)c2cc(CN(CC3CCCO3)C(=S)NCc3ccco3)c(=O)[nH]c2c1 (stereo not drawn)	inconclusive [inhibitor, single point]	–
O=C(NC(Cc1c[nH]c2ccccc12)C(=O)NCc1ccc(F)cc1)OCc1ccccc1 (stereo not drawn)	inconclusive [inhibitor, partial curve, poor fit]	–

SMILES	Potency	activity change, negative = growth inhibition
N#Cc1c(-c2ccc(Cl)cc2)cc(-c2cccs2)nc1SCC(=O)O	–	inactive: -5.02%
O/N=C(\c1ccc(Cl)cc1Cl)c1ncc(C(F)(F)F)cc1Cl	–	inactive: -26%
CN1C(=S)N(c2ccccc2)C(=O)/C1=C/c1ccco1	inconclusive [inhibitor, partial curve]	–
CCS(=O)(=O)N1CCc2cc(C(=O)NCc3ccccc3OC)ccc21	–	inactive: -9.03%
COc1cc(C(C)=O)ccc1OCC(=O)NCC(c1ccc(F)cc1)N1CCOCC1 (stereo not drawn)	–	inactive: -18.7%
Cc1cc[n+](CCC2CCCCC2)c2ccccc12	active: 1.26 µM	–
COC(=O)C1=CN(Cc2ccccc2)C=C(C(=O)OC)C1c1ccc(OC)c(OC)c1	inconclusive [inhibitor, single point]	–
CCC1NC(=O)c2cc3ccccc3cc2-n2c1nc1ccc(OC)cc1c2=O (stereo not drawn)	inconclusive [inhibitor, single point]	–
O=C(NCc1ccccc1)C(=O)Nc1c2c(nn1-c1ccc(F)cc1)CSC2	inconclusive [inhibitor, single point]	–
COc1ccc(COc2ccsc2C(=O)Nc2ccc(Cl)c(Cl)c2)cc1	inconclusive [inhibitor, single point]	–
CCCCC(=O)N(C)c1c(CC)nc2c(OCc3cccc(Cl)c3)cccn12	inconclusive [inhibitor, single point]	–
Cc1ccccc1-c1nc2scc(CCNC(=O)c3ccco3)n2n1	inconclusive [inhibitor, single point]	–
O=C1C=C(c2ccc(Cl)c(C(F)(F)F)c2)C[C@@H](c2ccc3c(c2)OCO3)C1	inconclusive [inhibitor, single point]	–
O=C(Nc1ccc(F)cc1)C(c1cccc(F)c1)N1CCN(c2cccc(C(F)(F)F)n2)CC1 (stereo not drawn)	inconclusive [inhibitor, single point]	–
CC(=O)Oc1cc(C(=O)OCC(=O)N2CCc3ccccc3C2)cc(OC(C)=O)c1OC(C)=O	active: 4.11 µM	–
Cc1ccc(C)c(NC(=O)Cn2cc(C(=O)C3CC3)c3ccccc32)c1	inconclusive [inhibitor, single point]	–
COc1ccc(CCN(C)C(=O)c2cc(-c3ccc(C)cc3)nc3ccccc23)cc1OC	inconclusive [inhibitor, single point]	–
Cc1ccc2c(COC(=O)CNC(=O)c3ccco3)cc(=O)oc2c1C	–	inactive: -2.51%
C/C=C/c1ccc(OCCCCN(C)Cc2ccccc2)c(OC)c1	inconclusive [inhibitor, single point]	–
CCc1ccc2oc(-c3ccc(C)c(NC(=O)/C=C/c4ccco4)c3)nc2c1	inconclusive [inhibitor, single point]	–
O=C1CN(C(=O)CSc2ccccn2)c2ccccc2N1	–	inactive: 5.25%
Cc1nc2ccc(NS(=O)(=O)c3ccccc3Cl)cc2s1	inconclusive [inhibitor, single point]	–
